The values that follow come from article PMC4336329 (PLoS ONE, 2015).

Screen size: about 310,000 compounds; about 14,000 (4.5%) showed an effect of 50% or more. The effect is printed as a negative number. This is one part of the list.
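Note: peak tail current of the secondary pulse compared with the same well before compound.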

In the experiment the target is human ether-à-go-go-related gene (hERG) potassium channel (human, UniProt Q12809). As to the kind of experiment: primary screen, population patch clamp on CHO cells stably expressing hERG.
human ether-à-go-go-related gene (hERG) potassium channel, sequence (Q12809 whole entry, looked up): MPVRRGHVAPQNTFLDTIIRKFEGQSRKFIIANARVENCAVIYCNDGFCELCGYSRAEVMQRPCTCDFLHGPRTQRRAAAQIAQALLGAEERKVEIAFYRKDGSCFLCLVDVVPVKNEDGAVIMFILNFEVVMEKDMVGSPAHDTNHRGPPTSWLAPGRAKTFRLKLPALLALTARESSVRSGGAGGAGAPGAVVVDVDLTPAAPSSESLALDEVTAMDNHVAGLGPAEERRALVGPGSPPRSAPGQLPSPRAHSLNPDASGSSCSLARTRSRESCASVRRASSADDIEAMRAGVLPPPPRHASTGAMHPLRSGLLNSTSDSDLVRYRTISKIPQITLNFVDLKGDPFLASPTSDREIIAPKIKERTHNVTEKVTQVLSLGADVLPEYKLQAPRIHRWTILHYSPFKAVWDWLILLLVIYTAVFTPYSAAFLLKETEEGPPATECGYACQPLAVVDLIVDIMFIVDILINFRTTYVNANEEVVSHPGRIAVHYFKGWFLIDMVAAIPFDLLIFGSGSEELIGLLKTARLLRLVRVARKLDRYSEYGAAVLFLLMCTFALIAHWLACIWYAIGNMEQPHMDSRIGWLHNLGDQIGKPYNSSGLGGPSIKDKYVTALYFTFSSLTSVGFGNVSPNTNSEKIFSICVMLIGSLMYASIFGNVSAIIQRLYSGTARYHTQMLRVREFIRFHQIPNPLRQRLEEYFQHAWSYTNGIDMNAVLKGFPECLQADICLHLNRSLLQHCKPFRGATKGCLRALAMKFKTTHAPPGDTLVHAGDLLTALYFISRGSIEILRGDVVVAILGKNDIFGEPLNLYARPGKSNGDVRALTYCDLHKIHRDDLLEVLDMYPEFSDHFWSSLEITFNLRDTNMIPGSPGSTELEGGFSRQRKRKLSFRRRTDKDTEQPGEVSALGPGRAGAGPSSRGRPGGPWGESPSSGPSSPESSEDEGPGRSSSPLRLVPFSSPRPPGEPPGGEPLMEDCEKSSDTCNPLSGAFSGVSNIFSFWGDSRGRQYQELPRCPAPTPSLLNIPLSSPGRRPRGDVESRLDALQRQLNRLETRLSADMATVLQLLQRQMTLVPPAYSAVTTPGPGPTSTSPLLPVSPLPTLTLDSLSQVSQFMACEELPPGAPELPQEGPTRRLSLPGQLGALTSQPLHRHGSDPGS
With `Cc1ccc(C(C(=O)NCC2CCCO2)N(C(=O)c2snc(C(N)=O)c2N)c2ccccc2F)o1` (stereo not shown), the “hERG current change (%, negative = inhibition) at 10uM” value is -12.9%.
In the case of `COc1ccc(Cn2c(=N)c(C(=O)NC3CCCCC3)cc3c(=O)n4ccccc4nc32)cc1` it was -68.9%.
On to `CCN(CC)S(=O)(=O)c1cc(C(=O)OCC(=O)NC(=O)c2cccn2C)ccc1C`, for which the “hERG current change (%, negative = inhibition) at 10uM” value was -4.56%.
The result for `COc1ccc(C(=O)CSc2nnc(CCc3ccccc3)n2-c2ccccc2)cc1` reads -7.8%.
As for `Cc1ccc(S(=O)(=O)Nc2ccc(N3CCCCC3)cc2)cc1`, the “hERG current change (%, negative = inhibition) at 10uM” value is listed as -0.401%.
In the case of `C=CCC(NC(=O)Cc1ccccc1)C(=O)NCCC` (stereo not shown) it was 21.3%; in that of `CCOCCN(C(=O)COC)c1cccc(OC)c1`, -7.45%.
The result for `CCN1CCN(Cc2cccnc2)CC1` reads 17.1%; that for `COc1cc2c(cc1[N+](=O)[O-])n(C(C)C)c(=O)n2C(C)C`, -40.3%.
In the case of `CCn1c(=O)cc(OCC(=O)Nc2ccc3c(c2)OCCO3)c2ccccc21` it was 10.7%.
As to `COc1ccccc1NC(=O)Nc1ccc2c(c1)OCCO2`, the “hERG current change (%, negative = inhibition) at 10uM” value is 22.2%.
In the case of `COc1cccc(NP(=O)(Oc2ccccc2Cl)Oc2ccccc2Cl)c1` it was 1.5%; in that of `Cc1ccc(NS(=O)(=O)c2ccc(CCC(=O)N3CCOCC3)cc2)cc1`, -12.9%.
The result for `COc1ccc(Nc2nc(C)cc(C)c2C(N)=O)cc1` reads -0.439%; that for `CCOC(=O)c1[nH]c(C)c(C(=O)Nc2ccc(C)c(Cl)c2)c1C`, 17.9%.
Turning to `Cc1ccc(C)n1-n1c(C)nc2sc3c(c2c1=O)CCCCC3`, the “hERG current change (%, negative = inhibition) at 10uM” value is listed as -7.15%.
As for `Cc1cc(NC(=O)Nc2ccccc2[N+](=O)[O-])no1`, the “hERG current change (%, negative = inhibition) at 10uM” value is 7.56%.
Turning to `COC(=O)c1sc2ccccc2c1-n1cccc1C(=O)C(=O)Nc1ccccc1`, the “hERG current change (%, negative = inhibition) at 10uM” value turned out to be 4.22%.
In the case of `COc1cc2c(cc1OC)/C(=C/C(=O)c1ccc(NC(C)=O)cc1)NCC2` it was 14.3%.
In the case of `Cc1c(NC(=O)CSc2nncn2-c2ccccc2)c(=O)n(-c2ccccc2)n1C` it was 26.6%; in that of `COc1cc(C(c2c(O)cc(C)[nH]c2=O)c2c(O)cc(C)[nH]c2=O)ccc1O`, -2.99%; in that of `COC(=O)CNC(=O)CN1C(=O)NC2(CCCc3ccccc32)C1=O` (stereo not shown), 11.3%.
In the case of `O=C(O)c1ccc(N/N=C/c2ccc3c(c2)OCO3)cc1` it was 17.8%; in that of `CCOC(=O)c1sc2nc(NC(=O)C3CCCCC3)sc2c1C`, 7.61%.
Take `Cc1ccc(S(=O)(=O)NCCC(=O)NCc2ccc(Cl)cc2)cc1C`: the “hERG current change (%, negative = inhibition) at 10uM” value is 11.4%.
The result for `CCn1c(SCC(=O)NC2CCCCC2)nc2c(c1=O)SC(C)C2` (stereo not shown) reads -2.82%; that for `CC1(C)CC(=O)C2=C(C1)Nc1ccccc1NC2c1cc(Cl)ccc1O` (stereo not shown), 7.11%; that for `COC(=O)CSc1nc2ccccc2n1CC(=O)N(C(C)C)C(C)C`, -40.1%.
In the case of `Nc1nnnn1/N=C/c1cc([N+](=O)[O-])ccc1O` it was 17.9%; in that of `CCOc1ccc(S(=O)(=O)N2CCOCC2)cc1NC(=O)CSCC(=O)Nc1cccc(C)c1`, -11.4%.
The result for `CCCC(=O)Nc1ccc(C(=O)NCC2CCCO2)cc1` (stereo not shown) reads -15.7%; that for `COc1ccc(NC(=O)c2nn(C)cc2[N+](=O)[O-])cc1`, 17.5%; that for `COc1ccc(C2CCCN2C(=S)Nc2ccc(C)cc2Cl)cc1OC` (stereo not shown), -13.6%.
For the compound `Nc1c(Cl)ncnc1NCCO`, the “hERG current change (%, negative = inhibition) at 10uM” value is 21.3%.
In the case of `CCc1ccc(NC(=O)c2ccc(F)c(S(=O)(=O)N(CC)c3ccccc3)c2)cc1` it was 30.6%; in that of `CC(=O)Nc1ccc(S(=O)(=O)Nc2cccc(-n3c(C)nc4ccccc4c3=O)c2)cc1`, 3.07%.
The result for `CSc1ccccc1OCc1cc(C(=O)N2CCCC2c2nonc2C)no1` (stereo not shown) reads 3.82%; that for `COc1cccc(N2C(=O)[C@H]3C(C(=O)c4cnccn4)=NN[C@H]3C2=O)c1`, 13.2%; that for `COc1ccc(C2=NOC(C(=O)Nc3cccnc3)C2)cc1OC` (stereo not shown), 1.17%.
As to `Cc1ccsc1C(=O)OCC(=O)NC1CCCC1`, the “hERG current change (%, negative = inhibition) at 10uM” value is recorded as 13%.
In the case of `CN1CC(=O)N(CC(=O)Nc2ccc(Br)cc2F)C1=O` it was 7.47%; in that of `CCOC(=O)c1c(C)[nH]c(C)c1S(=O)(=O)NCC1CCN(Cc2ccc(C)cc2)CC1`, -60.2%.
In the case of `O=C(c1ccc2c(c1)OCO2)N1CCN(S(=O)(=O)c2ccccc2)CC1` it was -20.5%.
Take `Cc1cc(S(=O)(=O)N2CCCCC2)c(C)s1`: the “hERG current change (%, negative = inhibition) at 10uM” value is recorded as 8.25%.
In the case of `COc1ccccc1CNC(=O)c1cc(C(C)=O)c[nH]1` it was 25.9%.
The result for `Cc1[nH]c2ccccc2c1/C=N/NC(=O)c1cccc(Br)c1` reads 0.234%.
